# Test results published in article PMC4336329 (PLoS ONE, 2015).
# The whole screen tested about 310,000 compounds, of which about 2,200 (0.71%) showed an effect of 50% or more. The effect is printed as a negative number. The list shows a part of the results.
# Target: human ether-à-go-go-related gene (hERG) potassium channel (human, UniProt Q12809)
# Test: primary screen, population patch clamp on CHO cells stably expressing hERG
# human ether-à-go-go-related gene (hERG) potassium channel, sequence (Q12809 whole entry, looked up): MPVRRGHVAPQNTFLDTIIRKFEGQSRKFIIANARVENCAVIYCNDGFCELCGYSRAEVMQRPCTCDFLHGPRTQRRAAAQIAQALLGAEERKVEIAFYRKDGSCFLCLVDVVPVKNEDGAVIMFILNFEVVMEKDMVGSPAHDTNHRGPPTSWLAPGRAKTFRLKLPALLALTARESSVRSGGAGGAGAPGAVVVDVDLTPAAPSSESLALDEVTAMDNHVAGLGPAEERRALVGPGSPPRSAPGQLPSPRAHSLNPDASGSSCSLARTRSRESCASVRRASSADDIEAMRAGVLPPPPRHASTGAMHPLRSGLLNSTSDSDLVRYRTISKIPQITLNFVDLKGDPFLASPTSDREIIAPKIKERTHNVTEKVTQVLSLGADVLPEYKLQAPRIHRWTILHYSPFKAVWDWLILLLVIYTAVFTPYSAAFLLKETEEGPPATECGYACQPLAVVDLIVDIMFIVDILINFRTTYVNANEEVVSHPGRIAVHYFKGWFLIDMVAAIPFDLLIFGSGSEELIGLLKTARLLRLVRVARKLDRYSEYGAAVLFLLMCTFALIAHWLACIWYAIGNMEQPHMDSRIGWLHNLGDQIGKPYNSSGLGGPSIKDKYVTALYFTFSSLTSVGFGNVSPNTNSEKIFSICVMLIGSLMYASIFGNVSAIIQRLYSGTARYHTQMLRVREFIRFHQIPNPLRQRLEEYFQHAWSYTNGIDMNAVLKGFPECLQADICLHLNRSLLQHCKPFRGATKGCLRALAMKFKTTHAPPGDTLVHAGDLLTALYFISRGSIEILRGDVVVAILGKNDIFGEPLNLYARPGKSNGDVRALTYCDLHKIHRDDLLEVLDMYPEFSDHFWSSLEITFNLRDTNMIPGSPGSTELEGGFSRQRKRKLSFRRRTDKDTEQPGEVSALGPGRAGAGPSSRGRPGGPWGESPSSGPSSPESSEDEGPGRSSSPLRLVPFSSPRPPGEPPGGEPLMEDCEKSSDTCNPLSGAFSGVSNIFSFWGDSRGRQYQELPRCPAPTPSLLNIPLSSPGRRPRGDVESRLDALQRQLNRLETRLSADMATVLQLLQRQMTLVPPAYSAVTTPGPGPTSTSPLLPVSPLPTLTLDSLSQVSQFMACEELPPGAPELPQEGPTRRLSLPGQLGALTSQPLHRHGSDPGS
row,Compound,"hERG current change (%, negative = inhibition) at 1uM [%]"
1,CC(C)=CCN1CCN(Cc2cccn2-c2ncccn2)CC1CCO (stereo not shown),-3.9
2,COc1ccc(NC(=O)c2csc(C)c2)cc1OC,8.94
3,CC(C)S(=O)(=O)c1csc(NC(=O)Nc2cccc([N+](=O)[O-])c2)c1Cl,-17
4,CCOCCCNC(=S)Nc1ccc(S(N)(=O)=O)cc1,1.01
5,CCCC(=O)Nc1ccc(Cl)c(NC(=O)C(C)(C)C)c1,-1.36
6,CCOC(=O)C1CCN(S(=O)(=O)c2cccc(-c3cn4cccc(C)c4n3)c2)CC1,5.94
7,CC(O)c1nc2ccccc2n1C1CCCCC1 (stereo not shown),4.01
8,COc1cc(/C=N/NC(=O)c2ccc3c(c2)OCO3)ccc1O,6.85
9,O=S(=O)(c1ccc(NC(=S)NCCc2ccccc2)cc1)N1CCOCC1,3.71
10,CCCc1nnc(NC(=O)CCC(=O)N2CCCCC2)s1,5.09
11,COCCn1c(SCC(=O)NC2CCCC2)nnc1C(C)C,12.2
12,Cc1ccc2cc(CN(CC3CCCO3)C(=S)NCc3ccco3)c(=O)[nH]c2c1 (stereo not shown),15.3
13,CCOC(=O)c1ccc(CNC(=O)CCC(=O)O)cc1,10.7
14,Nc1c(C(=O)O)cnn1-c1ccc([N+](=O)[O-])cc1,21.6
15,Cc1ccccc1NC(=O)NNC(=O)COc1ccc2ccccc2c1,3.61
16,Cc1ccc(-n2ncc3c2CCCC3NC(=O)CCc2cnccn2)cc1C (stereo not shown),2.17
17,Cc1ccccc1C(=O)NC(=S)NCc1cccnc1,15.1
18,Cc1cnc(NC(=O)c2cccc(S(=O)(=O)N3CC(C)OC(C)C3)c2)s1 (stereo not shown),6.45
19,CN(CCO)c1nc(N)c2c(N)nc3c(c2c1C#N)CC(=O)N3Cc1cccs1,8.52
20,CNc1nc(Cl)c(SC)c(NC2CCCCC2)n1,12.4
21,Cc1sc2nc(COC(=O)c3ccc(N4CCCC4)c([N+](=O)[O-])c3)[nH]c(=O)c2c1C,6.16
22,CCOc1ccc2c(c1)c1nnc(SCC3CCCO3)nc1n2C (stereo not shown),8.82

row,Compound,"hERG current change (%, negative = inhibition) at 1uM [%]"
1,O=C(CCS(=O)(=O)c1ccccc1F)Nc1ccc(N2CCN(Cc3ccccc3)CC2)cc1,22.8
2,Cn1c(SCC(=O)Nc2ccc(N3CCOCC3)cc2)nnc1C1CC1,9.06
3,CC(C)(C)OC(=O)N1CCCC1C(=O)O (stereo not shown),19.8
4,CCn1ccnc1CN(C)Cc1nc(-c2cccc(Cl)c2)no1,-7.95
5,Nc1ncc(Br)cc1S(=O)(=O)Nc1cc(C(F)(F)F)cc(C(F)(F)F)c1,19.5
6,COC(=O)c1c(C)oc2cc(Br)c(OCC(=O)C(C)(C)C)cc12,16.2
7,CC(=O)c1ccc(OC(C)c2nc3ccccc3s2)cc1 (stereo not shown),4.54
8,C=CCN(C(=O)CCC(=O)Nc1cc(C)on1)C(C(=O)NC1CCCC1)c1ccc(CC)cc1 (stereo not shown),5.83
9,COCC(C)NC(=O)CSc1ncnc2sc(-c3ccccc3)cc12 (stereo not shown),10.5
10,C=CCC1(Cl)C(=O)C(Cl)=C(N2CCN(C)CC2)C1(OC)OC (stereo not shown),18.3
11,COc1ccc(S(=O)(=O)N2CCCOC2CNC(=O)C(=O)NCc2ccco2)cc1 (stereo not shown),5.12
12,Cc1cccc(NS(=O)(=O)c2cccc(C(=O)NNC(=O)c3ccccc3O)c2)c1,12.8
13,Cc1cc(C(=O)N2CCCC(N3CCN(c4cccc(C(F)(F)F)c4)CC3)C2)no1 (stereo not shown),7.36
14,Cc1ccc(Nc2nc(N)nc(CSc3nnc(C)s3)n2)cc1,10
15,CCOC(=O)C1C(=O)NC(c2ccccc2)=NC1c1ccccc1 (stereo not shown),11.9
16,COC(=O)c1cccc(NC(=O)CC2NCCNC2=O)c1 (stereo not shown),6.28
17,O=C(c1cc([N+](=O)[O-])ccc1N1CCNCC1)N1CCOCC1,6.98
18,O=C(O)C1Cc2ccccc2CN1C(=O)c1ccccc1Cl (stereo not shown),18.3
19,COc1cccc(N2CCN(C3C4CC5CC(C4)CC3C5)CC2)c1 (stereo not shown),9.98
20,Cc1ccc(-n2cnc3c(sc4nc(N5CCOCC5)c5c(c43)CCCC5)c2=O)cc1,16.3
21,O=C(CN1C(=O)CSc2ccc(S(=O)(=O)N3CCOCC3)cc21)N1CCCCC1,16.2
22,COc1cnc(-c2cccc(C(F)(F)F)c2)nc1OC,15.6

row,Compound,"hERG current change (%, negative = inhibition) at 1uM [%]"
1,COc1ccc(-c2nc(SC(CC(=O)NCCN3CCOCC3)c3cccs3)n[nH]2)cc1 (stereo not shown),12.6
2,COc1ccc(/C=N\NC(=O)c2ccccc2F)cc1COc1ccc(F)cc1,16.6
3,CC(Oc1ccccc1)C(=O)N=C1SC2CS(=O)(=O)CC2N1Cc1ccc(F)cc1 (stereo not shown),7.27
4,COc1ccc(NC(=O)COC(=O)c2ccc(-n3nc(C)cc3C)cc2)cc1OC,16
5,O=C(CSc1ncnc2ccccc12)Nc1ccc2c(c1)OCCO2,11.7
6,Cc1cc(C(=O)N2CCCC(CCC(=O)N3CCN(c4ccccn4)CC3)C2)c(C)o1 (stereo not shown),4.65
7,Cc1c(C(=O)O)cccc1-n1c(C)cc(/C=N/NC(=O)c2cc3ccccc3o2)c1C,16.1
8,N#CC(C#N)=C(N)c1cccnc1,23.3
9,CCCCC(=O)N1CCN(c2nc3ccc(F)cc3s2)CC1,-11.2
10,CC(=O)Nc1ccc(NC(=O)COC(=O)C2(c3ccc(Cl)cc3)CCCC2)cc1,12.5
11,CC1CC1C(=O)OCc1cc(=O)n2cc(Br)ccc2n1 (stereo not shown),3.63
12,CCO[C@@H]1OC(C(=O)NCc2nc3ccccc3[nH]2)=C[C@H](c2ccccc2)[C@H]1CCCO,-6.06
13,Cc1ccccc1CNC(=O)C(=O)NCCC1CCCCN1S(=O)(=O)c1ccccc1 (stereo not shown),3.33
14,CN(C)C=O.O=C(COC(=O)c1ccc(S(=O)(=O)N2CCCC2)cc1)Nc1cccnc1Cl,23.5
15,Cc1cccc(NC(=S)NC(NC(=O)OCc2ccccc2)C(Cl)(Cl)Cl)c1 (stereo not shown),13.1
16,O=C(Nc1ccc2c(c1)OCO2)C(c1ccc(Cl)cc1)N1CCC2(CC1)OCCO2 (stereo not shown),3.41
17,CCn1cc(-c2ccccc2)c(C(=O)O)c1-c1ccc(OC)cc1,10.9
18,O=C(C1=C[C@@H]2[C@H]3C(=O)N(c4ccccc4)C(=O)[C@H]3[C@@H](C(=O)c3ccc(Cl)cc3)N2C=C1)c1ccccc1,10.4
19,CC(NCc1cccnc1)c1ccccc1 (stereo not shown),12.7
20,Cl.c1ccc(CNC2=NCCCCC2)cc1,0.633
21,CCN(C(=O)CN1C(=O)/C(=C/c2ccccc2F)SC1=S)C1CCS(=O)(=O)C1 (stereo not shown),10.2
22,O=C(Oc1ccc2ccccc2c1)C1CCC1,13.6

row,Compound,"hERG current change (%, negative = inhibition) at 1uM [%]"
1,CC(C)CCOCC(=O)Oc1ccccc1C(=O)O,14.2
2,Cc1ccc(C2(c3ccccc3)NC(=O)N(CC(=O)N(C)C3CCS(=O)(=O)C3)C2=O)cc1C (stereo not shown),0.57
3,CCn1c(SCC(=O)NCC2CCCO2)nc2ccccc21 (stereo not shown),5.18
4,CCc1cccc2c(C(=O)C(F)(F)F)cn(CC(=O)N3CCOCC3)c12,11.6
5,Cc1ccccc1NC(=O)CSc1nnc(-c2ccccc2)n1-c1ccccc1,5.76
6,Cc1nc2nc(CSc3nc4ccccc4s3)cc(=O)n2[nH]1,13
7,CC(NC(=O)/C(=C/c1ccc(OC(F)F)cc1)c1ccccc1)c1ccccc1 (stereo not shown),-15.4
8,COc1cccc(-c2c3c([nH]c(=O)c2C#N)CCc2cc(OC)ccc2-3)c1,15.3
9,Cl.Fc1ccc(Cn2nnnc2CN2CCc3ccccc3C2)cc1,7.64
10,Cc1cc(S(=O)(=O)N(Cc2ccccc2Cl)c2ccc3c(c2)CCC3)ccc1-n1cnnn1,19.2
11,O=C(Oc1ccccc1O)c1cccc2ccccc12,6.76
12,COc1ccc(C(=O)NNC(=O)CN2CCC(n3nnc4cc(F)ccc43)CC2)cc1,-2.92
13,CCCCOP(=O)(c1ccc(N(C)C)cc1)C(O)c1ccc(N(C)C)cc1 (stereo not shown),-3.17
14,O=C(CSCc1ccccc1)Nc1ccccc1C(=O)Nc1ccc(C(=O)O)cc1,11
15,O=C(Nc1sc2c(c1C(=O)NCc1cccnc1)CCCC2)c1ccco1,14.8
16,COc1ccc(/C=C2/SC(=S)N(CCC(=O)O)C2=O)cc1,-3.44
17,Cc1ccc(C)c(N2CCN(C(=O)Cn3ncn4cccc4c3=O)CC2)c1,11.7
18,CN(CC(=O)Nc1cccc(F)c1)C(=O)c1cccc(S(=O)(=O)N2CC3(C)CC2CC(C)(C)C3)c1 (stereo not shown),11.3
19,Cc1nn(-c2ccc(N3CCOCC3)nn2)c(C)c1CCC(=O)NCc1ccccc1,1.86
20,COCCN(C(=O)CSc1n[nH]c(-c2ccccc2)n1)c1c(N)n(Cc2ccccc2)c(=O)[nH]c1=O,-2.36
21,CCC(C)NC(=O)c1cn(CC)c2ccc(S(=O)(=O)N3CCCCCC3)cc2c1=O (stereo not shown),2.25
22,CCN1C(=O)[C@@H]2[C@@H](c3ccc(-c4ccc5c(c4)OCO5)c(OC)c3)N3CCCC[C@@]3(C(=O)OC)[C@@H]2C1=O.O=C(O)C(F)(F)F,11.4
